# Out of some 39,000 compounds screened, about 220 (0.56%) showed activity. Some of the results follow.
# Test system: Escherichia coli K-12 BW25113
# Test: relative growth (OD600 normalised to plate interquartile mean) (fraction); higher = less growth inhibition, active = 0.2 or less
# Settings: 50 µM; LB; incubation time: overnight (16-24 h)
# 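Note: static incubation at 37 °C against the wild-type strain, values averaged over two biological replicates.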
row,Structure (SMILES),relative growth
1,CCNC(=O)C[C@@H]1C=C[C@H](NC(=O)C2CCOCC2)[C@@H](CO)O1,inactive: 0.984
2,C[C@@H]1CCCCO[C@@H](CN(C)Cc2ccccc2)[C@@H](C)CN([C@@H](C)CO)C(=O)c2cc(NC(=O)Nc3ccc4c(c3)OCO4)ccc2O1,inactive: 0.975
3,CO[C@H]1C[C@@H]2CC[C@@H](C)[C@@](O)(O2)C(=O)C(=O)N2CCCC[C@H]2C(=O)O[C@H]([C@H](C)C[C@@H]2CC[C@@H](OCCO)[C@H](OC)C2)CC(=O)[C@H](C)/C=C(\C)[C@@H](O)[C@@H](OC)C(=O)[C@H](C)C[C@H](C)/C=C/C=C/C=C/1C,inactive: 1.01
4,COc1ccccc1-c1cccc(-c2nc(C(=O)NCc3ccncc3)cc3c2[C@H](CCO)N([S@@](=O)C(C)(C)C)C3)c1,inactive: 1.03
5,CNC[C@@H]1OCCCC[C@H](C)Oc2ccc(NS(=O)(=O)c3cn(C)cn3)cc2C(=O)N([C@@H](C)CO)C[C@@H]1C,inactive: 1.02
6,N=C(N)Nc1nc(=O)c2ccccc2s1,inactive: 1.05
7,COc1cccc(-c2ccc3c(c2)O[C@@H](CN(C)C(=O)C2CCOCC2)[C@H](C)CN([C@@H](C)CO)S3(=O)=O)c1,inactive: 0.987
8,C[C@H](CO)N1C[C@H](C)[C@@H](CN(C)C(=O)Nc2ccc(C(F)(F)F)cc2)Oc2ccc(NC(=O)Nc3ccccc3)cc2CC1=O,inactive: 0.884
9,C[C@@H]1CCCCO[C@@H](CN(C)S(=O)(=O)c2cn(C)cn2)[C@@H](C)CN([C@@H](C)CO)C(=O)c2cc(NC(=O)CCCN(C)C)ccc2O1,inactive: 1
10,CCNC(=O)NC(=O)COC(=O)CNC(=O)COc1ccccc1,inactive: 0.978
11,NCC[C@H]1CC[C@@H](NC(=O)c2ccccc2F)[C@H](CO)O1,inactive: 0.993
12,COc1ccc(-c2coc3cc(O)ccc3c2=O)c(OC)c1OC,inactive: 1.15
13,Cc1ccc(S(=O)(=O)N(C)C[C@H]2Oc3ccc(N(C)C)cc3CC(=O)N([C@@H](C)CO)C[C@H]2C)cc1,inactive: 1.01
14,COCC#Cc1cnc2c(c1)C(=O)N([C@H](C)CO)C[C@@H](C)[C@H](CN(C)C(=O)Nc1ccccc1OC)O2,inactive: 0.993
15,Cc1ccc(S(=O)(=O)Nc2ccc3c(c2)C(=O)N([C@@H](C)CO)C[C@@H](C)[C@@H](CN(C)C(=O)Nc2ccccc2)OCCCC[C@H](C)O3)cc1,inactive: 1.02
16,CC(C)C#Cc1cnc2c(c1)C(=O)N([C@@H](C)CO)C[C@H](C)[C@H](CN(C)C(=O)c1ccc3c(c1)OCO3)O2,inactive: 1
17,COc1ccc(NC(=O)Nc2cccc3c2O[C@H](CN(C)Cc2ccc(Cl)c(Cl)c2)[C@@H](C)CN([C@@H](C)CO)C3=O)cc1,inactive: 0.991
18,CCS(=O)(=O)N1C[C@]2(CCN(CC2)Cc2cccc(c2)OC)c2c([nH]c3cc(ccc23)OC)[C@@H]1CO,inactive: 0.995
19,C[C@H](CO)N1C[C@H](C)[C@H](CN(C)C(=O)Cc2ccccn2)Oc2cc(-c3cccc(C(=O)N(C)C)c3)ccc2S1(=O)=O,inactive: 0.998
20,C[C@@H]1CN([C@H](C)CO)S(=O)(=O)c2ccc(-c3cncnc3)cc2O[C@H]1CN(C)C(=O)NC1CCCC1,inactive: 0.989

row,Structure (SMILES),relative growth
1,C[C@@H]1CN([C@H](C)CO)C(=O)c2cc(NS(=O)(=O)c3ccc(F)cc3)ccc2O[C@H]1CN(C)CC1CC1,inactive: 0.989
2,CN(C)CC#Cc1ccc([C@H]2[C@@H](CO)N3CCCCN(C(=O)CN(C)C)C[C@H]23)cc1,inactive: 0.973
3,Cc1noc(C)c1S(=O)(=O)N(C)C[C@@H]1OCCCC[C@@H](C)Oc2ccc(NC(=O)Nc3ccccc3)cc2C(=O)N([C@H](C)CO)C[C@@H]1C,inactive: 1.01
4,C[C@@H]1CN([C@H](C)CO)C(=O)c2cc(C#Cc3ccccc3F)cnc2O[C@H]1CN(C)C(=O)Cc1cccnc1,inactive: 0.995
5,CO/N=C(\C(=O)N[C@@H]1C(=O)N2C(C(=O)O)=C(CSC(=O)c3ccco3)CS[C@H]12)c1csc(N)n1,active: 0.0342
6,Nc1ccc2cc(S(=O)(=O)O)ccc2c1/N=N/c1ccc(/C=C/c2ccc(/N=N/c3c(N)ccc4cc(S(=O)(=O)O)ccc34)cc2S(=O)(=O)O)c(S(=O)(=O)O)c1,inactive: 1.02
7,C[C@@H]1CCCCO[C@@H](CN(C)C(=O)CCCN(C)C)[C@@H](C)CN([C@H](C)CO)C(=O)c2cc(N(C)C)ccc2O1,inactive: 1.01
8,O=C(C[C@H]1CC[C@H]2[C@@H](COC[C@@H](O)CN2C(=O)c2ccc3c(c2)OCO3)O1)NC1Cc2ccccc2C1,inactive: 0.969
9,C[C@H]1COC(=O)[C@@H](Cc2ccc(F)cc2)CCC=CC[C@@H](CC(=O)N[C@H](CO)Cc2ccccc2)C(=O)N1,inactive: 1.01
10,C[C@@H]1CN([C@@H](C)CO)C(=O)c2cc(NC(=O)Nc3cccc4ccccc34)ccc2O[C@@H]1CN(C)Cc1ccc(C(=O)O)cc1,inactive: 1.01
11,O=c1[nH]c(=O)c2ccccc2[nH]1,inactive: 1.01
12,C[C@@H]1CN([C@@H](C)CO)C(=O)Cc2cc(NS(=O)(=O)c3ccccc3)ccc2O[C@@H]1CN(C)S(=O)(=O)c1cccs1,inactive: 1.03
13,Cc1noc(C)c1S(=O)(=O)Nc1ccc2c(c1)C(=O)N([C@H](C)CO)C[C@H](C)[C@H](CN(C)Cc1ccc(Oc3ccccc3)cc1)O2,inactive: 0.963
14,O=C(C[C@H]1C[C@@H]2c3cc(NC(=O)c4ccc5c(c4)OCO5)ccc3O[C@@H]2[C@H](CO)O1)NCc1cccnc1,inactive: 0.997
15,c1ccc([C@@H]2CNCCN2)cc1,inactive: 1.02
16,C1=C(c2ccccc2)CC(c2ccccc2)=NN=C1c1ccccc1,inactive: 1.02
17,COc1cccc(S(=O)(=O)N2C[C@@H](O)COC[C@H]3O[C@H](CC(=O)N4CCN(c5ccccc5)CC4)CC[C@@H]32)c1,inactive: 0.985
18,C[C@H](CO)N1C[C@H](C)[C@H](CN(C)CC2CCCCC2)Oc2ccc(NC(=O)Nc3ccc(F)cc3)cc2CC1=O,inactive: 0.985
19,CC(C)(C)C(=O)c1cccs1,inactive: 0.996

# From the supplement of paper PMC9446081
